# Whole data set: some 33,000 sequences, median “E-score (-0.5 to 0.5)” near -0.035, cut for the highest 2% near 0.35. The list shows a part of the results.
# Molecular target: T1, Pdr3 (UniProt P33200)
# T1 sequence: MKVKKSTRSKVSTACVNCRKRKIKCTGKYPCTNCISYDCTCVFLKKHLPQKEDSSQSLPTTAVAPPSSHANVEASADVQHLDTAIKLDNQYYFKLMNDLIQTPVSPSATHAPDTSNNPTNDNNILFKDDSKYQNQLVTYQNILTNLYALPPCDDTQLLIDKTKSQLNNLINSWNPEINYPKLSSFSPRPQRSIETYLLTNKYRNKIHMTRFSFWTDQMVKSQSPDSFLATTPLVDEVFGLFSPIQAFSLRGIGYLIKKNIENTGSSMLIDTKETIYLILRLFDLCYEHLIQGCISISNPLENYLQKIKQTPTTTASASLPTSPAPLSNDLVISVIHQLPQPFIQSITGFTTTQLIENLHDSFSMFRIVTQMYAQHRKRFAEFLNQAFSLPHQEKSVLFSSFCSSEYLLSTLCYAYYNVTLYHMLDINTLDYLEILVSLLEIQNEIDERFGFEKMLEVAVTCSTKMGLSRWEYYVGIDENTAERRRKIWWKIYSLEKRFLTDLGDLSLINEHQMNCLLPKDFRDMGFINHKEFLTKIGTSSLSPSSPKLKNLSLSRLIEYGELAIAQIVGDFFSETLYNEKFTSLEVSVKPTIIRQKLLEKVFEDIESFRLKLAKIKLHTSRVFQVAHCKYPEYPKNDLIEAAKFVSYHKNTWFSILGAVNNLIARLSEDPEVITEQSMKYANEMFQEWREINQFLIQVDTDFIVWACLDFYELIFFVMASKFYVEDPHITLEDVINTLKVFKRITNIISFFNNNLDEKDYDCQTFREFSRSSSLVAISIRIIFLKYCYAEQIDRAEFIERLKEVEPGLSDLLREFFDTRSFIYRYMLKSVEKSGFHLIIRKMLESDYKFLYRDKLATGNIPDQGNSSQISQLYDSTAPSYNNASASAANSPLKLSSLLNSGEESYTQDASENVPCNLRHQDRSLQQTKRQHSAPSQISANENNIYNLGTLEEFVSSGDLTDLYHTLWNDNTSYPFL
# Assay: PBM E-score (8-mer binding enrichment) (E-score (-0.5 to 0.5)); higher = stronger / more preferred TF binding; most listed sequences are background and not binding sites
# Conditions: protein concentration: 200 nM; construct: GST-full length
# Protocol: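 Universal 'all 10-mer' protein binding microarrays (Agilent AMADID 015681) probed with GST-tagged S. cerevisiae TFs (full-length or DBD) made by in vitro transcription/translation (PURExpress), about 100-200 nM. Bound TF was detected with fluorescent anti-GST. Each ungapped 8-mer (which stands for itself and its reverse complement) is scored by the PBM enrichment score (E-score), a modified Wilcoxon-Mann-Whitney statistic from -0.5 to +0.5, computed with the Universal PBM Analysis Suite. Scale: above 0.35 generally sequence-specific binding.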
row,Sequence,PBM E-score
1,GGCTGGCA,-0.313
2,AAAATCAG,0.0337
3,CAAGGTAA,0.0413
4,ATGGATTG,0.0851
5,CTCTTATC,0.105
6,CTTATCAA,-0.0642
7,GATTTTAA,0.064
8,ACAACAGG,-0.164
9,CTAAAAAA,0.0809
10,ATGAGTGC,-0.0172
11,ATGCAAAT,0.0149
12,AACCATCA,-0.067
13,ATTCATAC,0.174
14,ACCGACCA,0.00667
15,ATCAAGGA,-0.112
16,AAAGATCA,-0.0548
17,ACACCTAC,-0.00559
18,ATGTAAAA,-0.168
19,CCTTTCCC,0.235
20,ACCGTCTC,-0.0695
21,CCGTTGAC,0.0583
22,ATATTCAT,-0.0582
23,CATACCGG,0.189
24,CCATCTCG,0.102

row,Sequence,PBM E-score
1,CTGGTGTA,-0.172
2,ACGATTGG,-0.0144
3,AGCGGTTA,-0.121
4,AGGGAGCG,-0.0856
5,ATGCCTTC,-0.222
6,CACCGGAA,0.46
7,CCATGTGA,-0.17
8,AAATTAGA,-0.0404
9,CTCGTTGA,-0.233
10,TCCAATCA,0.0101
11,ATTGACAG,-0.115
12,GAAAGTCC,-0.00556
13,GAATTCAC,0.0392
14,GTATCCAA,-0.0553
15,ATCCTCAA,-0.139
16,GCAATCGA,-0.0276
17,ATTACGCG,0.119
18,ACGTCATG,-0.124
19,ACCAGCGA,0.11
20,CGGGTAAC,0.267
21,CAGCCGCA,-0.0661
22,ACCTTTGA,-0.189
23,GGGAAGAC,-0.0964
24,TAGCTAAA,-0.228

row,Sequence,PBM E-score
1,AGGGATGG,0.112
2,AGTTTTGC,-0.0368
3,CGGACTAA,0.268
4,CACACCAG,-0.198
5,ACGACGCA,-0.00033
6,AATCCCCA,0.0592
7,CTGCACAG,-0.139
8,AGATTTTA,-0.204
9,TATTGGGA,-0.105
10,GGAGGACC,0.0976
11,CACCGATG,-0.185
12,CCCGATTA,0.148
13,AGGACTGC,-0.377
14,AGACTCAG,-0.0747
15,GGTACTAC,-0.00175
16,CTTCGGGC,-0.0458
17,AGTAGCCC,-0.0951
18,CGCAGTTC,0.119
19,CCACTAAG,0.00787
20,AGTGGCAT,-0.103
21,GCGAAGCA,0.172
22,CCATGAAA,0.00658
23,CTAGCCAC,-0.331
24,GCGTTGTA,-0.0598

row,Sequence,PBM E-score
1,CCGGAGAC,0.37
2,CAGAGGAC,-0.132
3,ACTAGTAT,0.0316
4,ATAGAACC,-0.0736
5,ACAGACCA,0.0819
6,ACGGATCT,0.271
7,GTATTCGA,-0.0737
8,GTGGGCGA,-0.133
9,GGAACTCA,0.257
10,TCATGGAA,0.0232
11,AGTAGCAC,-0.104
12,AAGGATAG,-0.0728
13,CTGACCGC,0.166
14,TCATAGGA,-0.156
15,ACATGGGT,-0.0665
16,ACAAGGGT,-0.0359
17,CGCGGATA,0.412
18,GGTAGTCA,-0.186
19,ATCACCAG,-0.0765
20,ACTGAAAA,-0.0582
21,CTTCTCTC,-0.032
22,ACGCCTCG,0.0615

# — the supplement of paper PMC3334620
